# In the supplement of paper PMC8728848:
# Some of the results follow.
# B1: Gal 3 (Homo sapiens), P17931 (protein)
# chain: MADNFSLHDALSGSGNPNPQGWPGAWGNQPAGAGGYPGASYPGAYPGQAPPGAYPGQAPPGAYHGAPGAYPGAPAPGVYPGPPSGPGAYPSSGQPSAPGAYPATGPYGAPAGPLIVPYNLPLPGGVVPRMLITILGTVKPNANILDFQRGNDVAFHFNPRFNENNRRVIVCNTKLDNNWGREEIQSVFPFESGKPFKIQVLVEPDHFKVAVNDAHLLQYNHRVKKLNEISKLGISGDIDLTSASYTMI
# Assays:
# Assay in all cases: glycan array binding signal (z-score within array); higher = stronger binding
# Settings in all cases: glycan notation: IUPAC condensed, linker removed; mutation: R186I
# Gal6S(b1-4)Glc = biological target: Gal6S(b1-4)Glc
# Procedure, shortened: (§1)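 From the Consortium for Functional Glycomics database, 3228 arrays were curated, keeping only those whose protein sequence was available. Binding is given as a within-array Z-score averaged across arrays sharing a protein sequence and across linkers. Negative Z-scores can be read as non-binding.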
# Gal6S(b1-4)Glc6S = biological target: Gal6S(b1-4)Glc6S
# Procedure, shortened: as §1
# Gal6S(b1-4)GlcNAc = biological target: Gal6S(b1-4)GlcNAc
# Procedure, shortened: as §1
# Gal6S(b1-4)GlcNAc6S = biological target: Gal6S(b1-4)GlcNAc6S
# Procedure, shortened: as §1
# GalNAc(a1-3)Gal = biological target: GalNAc(a1-3)Gal
# Procedure, shortened: as §1
# GalNAc(a1-3)GalNAc = biological target: GalNAc(a1-3)GalNAc
# Procedure, shortened: as §1
# [1] = biological target: GalNAc(a1-3)GalNAc(a1-3)Gal(a1-4)Gal(b1-4)GlcNAc
# Procedure, shortened: as §1
# GalNAc(b1-3)Gal = biological target: GalNAc(b1-3)Gal
# Procedure, shortened: as §1
# [2] = biological target: GalNAc(b1-3)Gal(a1-4)Gal(b1-4)GlcNAc
# Procedure, shortened: as §1
# [3] = biological target: GalNAc(b1-3)Gal(a1-4)Gal(b1-4)GlcNAc(b1-3)Gal(b1-4)Glc
# Procedure, shortened: as §1
# [4] = biological target: GalNAc(b1-3)Gal(a1-6)Gal(b1-4)Glc
# Procedure, shortened: as §1
# GalNAc(b1-3)GalNAc = biological target: GalNAc(b1-3)GalNAc
# Procedure, shortened: as §1
# GalNAc(b1-4)GlcNAc = biological target: GalNAc(b1-4)GlcNAc
# Procedure, shortened: as §1
# [5] = biological target: GalNAc(b1-4)GlcNAc(b1-2)Man(a1-3)[GalNAc(b1-4)GlcNAc(b1-2)Man(a1-6)]Man(b1-4)GlcNAc(b1-4)GlcNAc
# Procedure, shortened: as §1
# Glc(a1-4)Glc = biological target: Glc(a1-4)Glc
# Procedure, shortened: as §1
# Glc(a1-6)Glc(a1-6)Glc = biological target: Glc(a1-6)Glc(a1-6)Glc
# Procedure, shortened: as §1
# Glc(b1-4)Glc = biological target: Glc(b1-4)Glc
# Procedure, shortened: as §1
# Glc(b1-6)Glc = biological target: Glc(b1-6)Glc
# Procedure, shortened: as §1
# GlcA(b1-3)Gal = biological target: GlcA(b1-3)Gal
# Procedure, shortened: as §1
# GlcA(b1-3)GlcNAc = biological target: GlcA(b1-3)GlcNAc
# Procedure, shortened: as §1
# GlcA(b1-6)Gal = biological target: GlcA(b1-6)Gal
# Procedure, shortened: as §1
# [6] = biological target: GlcNAc(a1-3)Gal(b1-4)GlcNAc
# Procedure, shortened: as §1
# [7] = biological target: GlcNAc(a1-4)Gal(b1-3)GlcNAc
# Procedure, shortened: as §1
# [8] = biological target: GlcNAc(a1-4)Gal(b1-4)GalNAc
# Procedure, shortened: as §1
# [9] = biological target: GlcNAc(a1-4)Gal(b1-4)GlcNAc
# Procedure, shortened: as §1
# [10] = biological target: GlcNAc(a1-4)Gal(b1-4)GlcNAc(b1-3)Gal(b1-4)Glc
# Procedure, shortened: as §1
# [11] = biological target: GlcNAc(a1-4)Gal(b1-4)GlcNAc(b1-3)Gal(b1-4)GlcNAc
# Procedure, shortened: as §1
# [12] = biological target: GlcNAc(a1-4)Gal(b1-4)GlcNAc(b1-3)Gal(b1-4)GlcNAc(b1-3)Gal(b1-4)GlcNAc
# Procedure, shortened: as §1
# [13] = biological target: GlcNAc(a1-4)Gal(b1-4)GlcNAc(b1-3)Gal(b1-4)[Fuc(a1-3)]GlcNAc(b1-3)Gal(b1-4)[Fuc(a1-3)]GlcNAc
# Procedure, shortened: as §1
# [14] = biological target: GlcNAc(a1-6)Gal(b1-4)GlcNAc
# Procedure, shortened: as §1
# [15] = biological target: GlcNAc(b1-2)Gal(b1-3)GalNAc
# Procedure, shortened: as §1
# [16] = biological target: GlcNAc(b1-2)Man(a1-3)[GlcNAc(b1-2)Man(a1-6)]Man(b1-4)GlcNAc(b1-4)GlcNAc
# Procedure, shortened: as §1
# [17] = biological target: GlcNAc(b1-2)Man(a1-3)[GlcNAc(b1-2)Man(a1-6)]Man(b1-4)GlcNAc(b1-4)[Fuc(a1-6)]GlcNAc
# Procedure, shortened: as §1
# [18] = biological target: GlcNAc(b1-2)[GlcNAc(b1-4)]Man(a1-3)[GlcNAc(b1-2)Man(a1-6)]Man(b1-4)GlcNAc(b1-4)GlcNAc
# Procedure, shortened: as §1
# GlcNAc(b1-3)Gal = biological target: GlcNAc(b1-3)Gal
# Procedure, shortened: as §1
# [19] = biological target: GlcNAc(b1-3)Gal(b1-3)GalNAc
# Procedure, shortened: as §1
# GlcNAc(b1-3)Gal(b1-4)Glc = biological target: GlcNAc(b1-3)Gal(b1-4)Glc
# Procedure, shortened: as §1
# [20] = biological target: GlcNAc(b1-3)Gal(b1-4)GlcNAc
# Procedure, shortened: as §1
binder,measurement,setting,value
B1,glycan array binding signal (z-score),Gal6S(b1-4)Glc,-0.18
same,glycan array binding signal (z-score),Gal6S(b1-4)Glc6S,0.239
same,glycan array binding signal (z-score),Gal6S(b1-4)GlcNAc,-0.167
same,glycan array binding signal (z-score),Gal6S(b1-4)GlcNAc6S,-0.191
same,glycan array binding signal (z-score),GalNAc(a1-3)Gal,-0.188
same,glycan array binding signal (z-score),GalNAc(a1-3)GalNAc,-0.174
same,glycan array binding signal (z-score),[1],-0.188
same,glycan array binding signal (z-score),GalNAc(b1-3)Gal,-0.193
same,glycan array binding signal (z-score),[2],-0.177
same,glycan array binding signal (z-score),[3],2.69
same,glycan array binding signal (z-score),[4],-0.182
same,glycan array binding signal (z-score),GalNAc(b1-3)GalNAc,-0.186
same,glycan array binding signal (z-score),GalNAc(b1-4)GlcNAc,-0.187
same,glycan array binding signal (z-score),[5],-0.114
same,glycan array binding signal (z-score),Glc(a1-4)Glc,-0.196
same,glycan array binding signal (z-score),Glc(a1-6)Glc(a1-6)Glc,-0.021
same,glycan array binding signal (z-score),Glc(b1-4)Glc,-0.191
same,glycan array binding signal (z-score),Glc(b1-6)Glc,0.004
same,glycan array binding signal (z-score),GlcA(b1-3)Gal,-0.11
same,glycan array binding signal (z-score),GlcA(b1-3)GlcNAc,-0.188
same,glycan array binding signal (z-score),GlcA(b1-6)Gal,-0.193
same,glycan array binding signal (z-score),[6],-0.16
same,glycan array binding signal (z-score),[7],-0.145
same,glycan array binding signal (z-score),[8],-0.172
same,glycan array binding signal (z-score),[9],-0.187
same,glycan array binding signal (z-score),[10],-0.163
same,glycan array binding signal (z-score),[11],-0.181
same,glycan array binding signal (z-score),[12],0.461
same,glycan array binding signal (z-score),[13],-0.048
same,glycan array binding signal (z-score),[14],-0.156
same,glycan array binding signal (z-score),[15],-0.091
same,glycan array binding signal (z-score),[16],-0.185
same,glycan array binding signal (z-score),[17],-0.178
same,glycan array binding signal (z-score),[18],-0.096
same,glycan array binding signal (z-score),GlcNAc(b1-3)Gal,-0.191
same,glycan array binding signal (z-score),[19],-0.185
same,glycan array binding signal (z-score),GlcNAc(b1-3)Gal(b1-4)Glc,-0.183
same,glycan array binding signal (z-score),[20],-0.193
